# Assay results: the supplement of paper PMC8728848
# This is one part of the list.
# B1: rCnSL-A (Clitocybe nebularis) (protein)
# chain: VNPNLPGPNDVFVGFRGTNNIVGAIYEKDGIKDTPLNNGADAEMGPGSYITDGLFTARIFASGSAGNNPGTTATVCKIYASGVQWRGAPKGYIPVAYFGNGPTAEQRRQTYLRTLGLPGTAIRFGNLNTNPGQGPTAPRQMVVPPGPLRSLLKASCFPAADTRLPQTLHYFEKRVDWNIITAADSQTWGH
# Key:
# Assay in all cases: glycan array binding signal (z-score within array); higher = stronger binding
# Details in all cases: glycan notation: IUPAC condensed, linker removed
# [1] = biological target: GlcNAc(b1-2)Gal(b1-3)GalNAc
# Outline: (§1)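 From the Consortium for Functional Glycomics database, 3228 arrays were curated, keeping only those whose protein sequence was available. Binding is given as a within-array Z-score averaged across arrays sharing a protein sequence and across linkers. Negative Z-scores can be read as non-binding.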
# [2] = biological target: GlcNAc(b1-2)Man(a1-3)[GlcNAc(b1-2)Man(a1-6)]Man(b1-4)GlcNAc(b1-4)GlcNAc
# Outline: as §1
# [3] = biological target: GlcNAc(b1-2)Man(a1-3)[GlcNAc(b1-2)Man(a1-6)]Man(b1-4)GlcNAc(b1-4)[Fuc(a1-6)]GlcNAc
# Outline: as §1
# [4] = biological target: GlcNAc(b1-2)Man(a1-3)[GlcNAc(b1-4)][GlcNAc(b1-2)Man(a1-6)]Man(b1-4)GlcNAc(b1-4)GlcNAc
# Outline: as §1
# [5] = biological target: GlcNAc(b1-2)Man(a1-3)[GlcNAc(b1-4)][GlcNAc(b1-2)Man(a1-6)]Man(b1-4)GlcNAc(b1-4)[Fuc(a1-6)]GlcNAc
# Outline: as §1
# [6] = biological target: GlcNAc(b1-2)[GlcNAc(b1-4)]Man(a1-3)[GlcNAc(b1-2)Man(a1-6)]Man(b1-4)GlcNAc(b1-4)GlcNAc
# Outline: as §1
# [7] = biological target: GlcNAc(b1-2)[GlcNAc(b1-4)]Man(a1-3)[GlcNAc(b1-4)][GlcNAc(b1-2)Man(a1-6)]Man(b1-4)GlcNAc(b1-4)GlcNAc
# Outline: as §1
# [8] = biological target: GlcNAc(b1-2)[GlcNAc(b1-4)]Man(a1-3)[GlcNAc(b1-4)][GlcNAc(b1-2)[GlcNAc(b1-6)]Man(a1-6)]Man(b1-4)GlcNAc(b1-4)GlcNAc
# Outline: as §1
# [9] = biological target: GlcNAc(b1-2)[GlcNAc(b1-4)]Man(a1-3)[GlcNAc(b1-4)][GlcNAc(b1-2)[GlcNAc(b1-6)]Man(a1-6)]Man(b1-4)GlcNAc(b1-4)[Fuc(a1-6)]GlcNAc
# Outline: as §1
# [10] = biological target: GlcNAc(b1-2)[GlcNAc(b1-6)]Man(a1-6)[GlcNAc(b1-2)Man(a1-3)]Man(b1-4)GlcNAc(b1-4)GlcNAc
# Outline: as §1
# [11] = biological target: GlcNAc(b1-2)[GlcNAc(b1-6)]Man(a1-6)[GlcNAc(b1-2)Man(a1-3)]Man(b1-4)GlcNAc(b1-4)[Fuc(a1-6)]GlcNAc
# Outline: as §1
# [12] = biological target: GlcNAc(b1-2)[GlcNAc(b1-6)]Man(a1-6)[GlcNAc(b1-4)][GlcNAc(b1-2)Man(a1-3)]Man(b1-4)GlcNAc(b1-4)GlcNAc
# Outline: as §1
# GlcNAc(b1-3)Fuc = biological target: GlcNAc(b1-3)Fuc
# Outline: as §1
# GlcNAc(b1-3)Gal = biological target: GlcNAc(b1-3)Gal
# Outline: as §1
# [13] = biological target: GlcNAc(b1-3)Gal(b1-3)GalNAc
# Outline: as §1
# GlcNAc(b1-3)Gal(b1-4)Glc = biological target: GlcNAc(b1-3)Gal(b1-4)Glc
# Outline: as §1
# [14] = biological target: GlcNAc(b1-3)Gal(b1-4)GlcNAc
# Outline: as §1
# [15] = biological target: GlcNAc(b1-3)Gal(b1-4)GlcNAc(b1-2)Man(a1-3)[GlcNAc(b1-3)Gal(b1-4)GlcNAc(b1-2)Man(a1-6)]Man(b1-4)GlcNAc(b1-4)GlcNAc
# Outline: as §1
# [16] = biological target: GlcNAc(b1-3)Gal(b1-4)GlcNAc(b1-2)Man(a1-3)[GlcNAc(b1-3)Gal(b1-4)GlcNAc(b1-2)Man(a1-6)]Man(b1-4)GlcNAc(b1-4)[Fuc(a1-6)]GlcNAc
# Outline: as §1
# [17] = biological target: GlcNAc(b1-3)Gal(b1-4)GlcNAc(b1-2)[GlcNAc(b1-3)Gal(b1-4)GlcNAc(b1-6)]Man(a1-6)[GlcNAc(b1-3)Gal(b1-4)GlcNAc(b1-2)Man(a1-3)]Man(b1-4)GlcNAc(b1-4)GlcNAc
# Outline: as §1
# [18] = biological target: GlcNAc(b1-3)Gal(b1-4)GlcNAc(b1-3)Gal(b1-4)GlcNAc
# Outline: as §1
# [19] = biological target: GlcNAc(b1-3)Gal(b1-4)GlcNAc(b1-3)Gal(b1-4)GlcNAc(b1-2)Man(a1-3)[GlcNAc(b1-3)Gal(b1-4)GlcNAc(b1-3)Gal(b1-4)GlcNAc(b1-2)Man(a1-6)]Man(b1-4)GlcNAc(b1-4)GlcNAc
# Outline: as §1
# [20] = biological target: GlcNAc(b1-3)Gal(b1-4)GlcNAc(b1-3)Gal(b1-4)GlcNAc(b1-2)Man(a1-3)[GlcNAc(b1-3)Gal(b1-4)GlcNAc(b1-3)Gal(b1-4)GlcNAc(b1-2)Man(a1-6)]Man(b1-4)GlcNAc(b1-4)[Fuc(a1-6)]GlcNAc
# Outline: as §1
# [21] = biological target: GlcNAc(b1-3)Gal(b1-4)GlcNAc(b1-3)Gal(b1-4)GlcNAc(b1-2)[GlcNAc(b1-3)Gal(b1-4)GlcNAc(b1-3)Gal(b1-4)GlcNAc(b1-6)]Man(a1-6)[GlcNAc(b1-3)Gal(b1-4)GlcNAc(b1-3)Gal(b1-4)GlcNAc(b1-2)Man(a1-3)]Man(b1-4)GlcNAc(b1-4)[Fuc(a1-6)]GlcNAc
# Outline: as §1
# [22] = biological target: GlcNAc(b1-3)Gal(b1-4)GlcNAc(b1-3)Gal(b1-4)GlcNAc(b1-3)Gal(b1-4)GlcNAc(b1-2)Man(a1-3)[GlcNAc(b1-3)Gal(b1-4)GlcNAc(b1-3)Gal(b1-4)GlcNAc(b1-3)Gal(b1-4)GlcNAc(b1-2)Man(a1-6)]Man(b1-4)GlcNAc(b1-4)GlcNAc
# Outline: as §1
# [23] = biological target: GlcNAc(b1-3)Gal(b1-4)GlcNAc(b1-3)Gal(b1-4)GlcNAc(b1-3)Gal(b1-4)GlcNAc(b1-2)Man(a1-3)[GlcNAc(b1-3)Gal(b1-4)GlcNAc(b1-3)Gal(b1-4)GlcNAc(b1-3)Gal(b1-4)GlcNAc(b1-2)Man(a1-6)]Man(b1-4)GlcNAc(b1-4)[Fuc(a1-6)]GlcNAc
# Outline: as §1
# [24] = biological target: GlcNAc(b1-3)Gal(b1-4)GlcNAc(b1-3)Gal(b1-4)GlcNAc(b1-3)Gal(b1-4)GlcNAc(b1-2)[GlcNAc(b1-3)Gal(b1-4)GlcNAc(b1-3)Gal(b1-4)GlcNAc(b1-3)Gal(b1-4)GlcNAc(b1-6)]Man(a1-6)[GlcNAc(b1-3)Gal(b1-4)GlcNAc(b1-3)Gal(b1-4)GlcNAc(b1-3)Gal(b1-4)GlcNAc(b1-2)Man(a1-3)]Man(b1-4)GlcNAc(b1-4)[Fuc(a1-6)]GlcNAc
# Outline: as §1
# [25] = biological target: GlcNAc(b1-3)Gal(b1-4)GlcNAc(b1-3)Gal(b1-4)GlcNAc(b1-3)Gal(b1-4)GlcNAc(b1-3)Gal(b1-4)GlcNAc(b1-2)Man(a1-3)[GlcNAc(b1-3)Gal(b1-4)GlcNAc(b1-3)Gal(b1-4)GlcNAc(b1-3)Gal(b1-4)GlcNAc(b1-3)Gal(b1-4)GlcNAc(b1-2)Man(a1-6)]Man(b1-4)GlcNAc(b1-4)GlcNAc
# Outline: as §1
# [26] = biological target: GlcNAc(b1-3)Gal(b1-4)GlcNAc(b1-3)Gal(b1-4)GlcNAc(b1-3)Gal(b1-4)GlcNAc(b1-3)Gal(b1-4)GlcNAc(b1-2)Man(a1-3)[GlcNAc(b1-3)Gal(b1-4)GlcNAc(b1-3)Gal(b1-4)GlcNAc(b1-3)Gal(b1-4)GlcNAc(b1-3)Gal(b1-4)GlcNAc(b1-2)Man(a1-6)]Man(b1-4)GlcNAc(b1-4)[Fuc(a1-6)]GlcNAc
# Outline: as §1
# [27] = biological target: GlcNAc(b1-3)Gal(b1-4)GlcNAc(b1-3)Gal(b1-4)GlcNAc(b1-3)Gal(b1-4)GlcNAc(b1-3)Gal(b1-4)GlcNAc(b1-2)[GlcNAc(b1-3)Gal(b1-4)GlcNAc(b1-3)Gal(b1-4)GlcNAc(b1-3)Gal(b1-4)GlcNAc(b1-3)Gal(b1-4)GlcNAc(b1-6)]Man(a1-6)[GlcNAc(b1-3)Gal(b1-4)GlcNAc(b1-3)Gal(b1-4)GlcNAc(b1-3)Gal(b1-4)GlcNAc(b1-3)Gal(b1-4)GlcNAc(b1-2)Man(a1-3)]Man(b1-4)GlcNAc(b1-4)[Fuc(a1-6)]GlcNAc
# Outline: as §1
# [28] = biological target: GlcNAc(b1-3)Gal(b1-4)GlcNAc(b1-3)Gal(b1-4)GlcNAc(b1-3)GalNAc
# Outline: as §1
# [29] = biological target: GlcNAc(b1-3)Gal(b1-4)GlcNAc(b1-3)GalNAc
# Outline: as §1
# [30] = biological target: GlcNAc(b1-3)Gal(b1-4)GlcNAc(b1-3)[GlcNAc(b1-3)Gal(b1-4)GlcNAc(b1-3)]GalNAc
# Outline: as §1
# [31] = biological target: GlcNAc(b1-3)Gal(b1-4)GlcNAc(b1-6)[Gal(b1-3)]GalNAc
# Outline: as §1
# [32] = biological target: GlcNAc(b1-3)Gal(b1-4)GlcNAc(b1-6)[GlcNAc(b1-3)Gal(b1-3)]GalNAc
# Outline: as §1
# [33] = biological target: GlcNAc(b1-3)Gal(b1-4)GlcNAc(b1-6)[GlcNAc(b1-3)]Gal(b1-4)GlcNAc
# Outline: as §1
# GlcNAc(b1-3)GalNAc = biological target: GlcNAc(b1-3)GalNAc
# Outline: as §1
# GlcNAc(b1-3)Man = biological target: GlcNAc(b1-3)Man
# Outline: as §1
# [34] = biological target: GlcNAc(b1-3)[GlcNAc(b1-4)][GlcNAc(b1-6)]GlcNAc
# Outline: as §1
# [35] = biological target: GlcNAc(b1-3)[GlcNAc(b1-6)]Gal(b1-4)GlcNAc
# Outline: as §1
# [36] = biological target: GlcNAc(b1-3)[GlcNAc(b1-6)]GalNAc
# Outline: as §1
# [37] = biological target: GlcNAc(b1-4)Gal(b1-4)GlcNAc
# Outline: as §1
# GlcNAc(b1-4)GlcNAc = biological target: GlcNAc(b1-4)GlcNAc
# Outline: as §1
# [38] = biological target: GlcNAc(b1-4)GlcNAc(b1-4)GlcNAc
# Outline: as §1
# [39] = biological target: GlcNAc(b1-4)GlcNAc(b1-4)GlcNAc(b1-4)GlcNAc(b1-4)GlcNAc
# Outline: as §1
binder,measurement,setting,value
B1,glycan array binding signal (z-score),[1],-0.27
same,glycan array binding signal (z-score),[2],-0.256
same,glycan array binding signal (z-score),[3],0.029
same,glycan array binding signal (z-score),[4],-0.223
same,glycan array binding signal (z-score),[5],-0.26
same,glycan array binding signal (z-score),[6],-0.168
same,glycan array binding signal (z-score),[7],-0.22
same,glycan array binding signal (z-score),[8],-0.237
same,glycan array binding signal (z-score),[9],-0.26
same,glycan array binding signal (z-score),[10],-0.161
same,glycan array binding signal (z-score),[11],0.157
same,glycan array binding signal (z-score),[12],-0.278
same,glycan array binding signal (z-score),GlcNAc(b1-3)Fuc,-0.2
same,glycan array binding signal (z-score),GlcNAc(b1-3)Gal,-0.22
same,glycan array binding signal (z-score),[13],-0.231
same,glycan array binding signal (z-score),GlcNAc(b1-3)Gal(b1-4)Glc,-0.241
same,glycan array binding signal (z-score),[14],-0.251
same,glycan array binding signal (z-score),[15],-0.183
same,glycan array binding signal (z-score),[16],-0.206
same,glycan array binding signal (z-score),[17],-0.221
same,glycan array binding signal (z-score),[18],-0.196
same,glycan array binding signal (z-score),[19],0.451
same,glycan array binding signal (z-score),[20],0.016
same,glycan array binding signal (z-score),[21],-0.296
same,glycan array binding signal (z-score),[22],-0.315
same,glycan array binding signal (z-score),[23],0.045
same,glycan array binding signal (z-score),[24],-0.268
same,glycan array binding signal (z-score),[25],-0.218
same,glycan array binding signal (z-score),[26],-0.06
same,glycan array binding signal (z-score),[27],-0.215
same,glycan array binding signal (z-score),[28],-0.219
same,glycan array binding signal (z-score),[29],-0.314
same,glycan array binding signal (z-score),[30],-0.188
same,glycan array binding signal (z-score),[31],-0.232
same,glycan array binding signal (z-score),[32],-0.231
same,glycan array binding signal (z-score),[33],-0.298
same,glycan array binding signal (z-score),GlcNAc(b1-3)GalNAc,-0.24
same,glycan array binding signal (z-score),GlcNAc(b1-3)Man,-0.175
same,glycan array binding signal (z-score),[34],-0.22
same,glycan array binding signal (z-score),[35],-0.298
same,glycan array binding signal (z-score),[36],-0.281
same,glycan array binding signal (z-score),[37],-0.092
same,glycan array binding signal (z-score),GlcNAc(b1-4)GlcNAc,-0.208
same,glycan array binding signal (z-score),[38],-0.201
same,glycan array binding signal (z-score),[39],-0.217
